# Data as given in PubChem BioAssay AID651820 (National Center for Advancing Translational Sciences (NCATS), 2012).
# Out of some 340,000 compounds screened, about 12,000 (3.5%) were called active. This list was built around the results that the source calls inconclusive (neither active nor inactive); the mix of calls is not that of the screen. The call rests on the fitted dose curve; in most records, active means well fitted inhibition curve with a large enough effect; inconclusive means small, poorly fitted or top-dose-only effect, or another doubt; inactive means no such curve, though single readings can be large or run the other way. No potency is given beside an inconclusive call; the fits are too rough.
# Assay: qHTS Assay for Inhibitors of Hepatitis C Virus (HCV)
# Conditions: Huh7.5.1 HCVcc-Cre (HCVcc is cell-culture hepatitis C virus) infection, luciferase reporter, 44 h; activity change, negative = inhibition: at 41.8 µM (top of the series) unless noted
# How it was run: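 Compounds are dispensed onto cells plated 4 h earlier at 1,000 per well, with HCVcc-Cre virus (about 0.5 moi) added next. Following 44 h of culture, luminescent signal is measured for 15 sec after 15 min with substrate at room temperature.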
# On the % scale 0 is the no-effect control and ±100 the full control effect; potency means the concentration at half of the fitted maximal effect; tags describe the fitted curve by direction and shape.
Structure (SMILES),"activity change, negative = inhibition",Potency
CCOC(=O)C1CCCN(C(=O)c2ccc3c(c2)N(Cc2ccccc2)C(=O)c2ccccc2S3=O)C1 (centres undefined),inactive: -2.02%,–
Cc1ccccc1OCC(=O)N/N=C/c1ccc(N2CCOCC2)o1,–,"inconclusive [inhibitor, single point]"
Cc1cnc(C)c(N2CCN(C(=O)C3CCC(=O)N(CCc4cccc(F)c4)C3)CC2)n1 (centres undefined),–,"inconclusive [inhibitor, single point]"
CCSc1nnc(-c2ccc(C)cc2)c2ccccc12,–,"inconclusive [inhibitor, single point]"
O=C(NNC(=O)c1ccc(Oc2ccc(C3SCCS3)cc2)o1)c1ccc(Cl)cc1,–,"inconclusive [inhibitor, full curve]"
Cc1cccc(N(C)c2ncnc3onc(-c4ccc(F)cc4)c23)c1C,–,"inconclusive [inhibitor, single point]"
Cc1cc(C(=O)COc2cccc([N+](=O)[O-])c2)c(C)n1C1CC1,–,active: 11.2 µM
O=C(Nc1cccc(C(=O)N2CCOCC2)c1)c1cncc(Br)c1,–,"inconclusive [inhibitor, single point]"
Cc1ccc(C(=O)N2CCCC(C(=O)Nc3cccc(-c4ccc(F)cc4)c3)C2)cn1 (centres undefined),–,"inconclusive [inhibitor, single point]"
O=C1C(c2ccccc2)=[N+]([O-])c2ccccc21,–,active: 10 µM
O=C(Nc1ccc(S(=O)(=O)NCc2cccnc2)cc1)c1ccco1,–,"inconclusive [inhibitor, partial curve]"
Cc1ccc(S(=O)(=O)NCc2ccc(N3CCN(C(=O)OC(C)(C)C)CC3)cc2)cc1,–,"inconclusive [inhibitor, single point]"
Cc1cc(C)c(NC(=S)NCCCSC2CCCCC2)c(C)c1,–,"inconclusive [inhibitor, single point]"
CCCCN1CC(=O)N2[C@H]3c4ccc(OC)cc4OC[C@@H]3[C@H](c3ccccc3)[C@]2(C)C1=O,–,"inconclusive [inhibitor, full curve, poor fit]"
CCn1c(COc2cccc(C)c2)nnc1SCC(=O)NC1CCCC1,inactive: 8.72%,–
Cc1ccc(OCC(=O)Nc2cccc(-c3nnc(-c4ccccc4)o3)c2)cc1,–,"inconclusive [inhibitor, partial curve]"
Cc1cc(N2CCN(C)CC2)nc2ccc(NC(=S)N3CCN(c4ccc(Cl)cc4)CC3)cc12,–,"inconclusive [inhibitor, full curve, poor fit]"
O=c1cc(CSc2ccccc2)[nH]c(=S)[nH]1,inactive: 1.43%,–
C=CCN(c1ccc(C(=O)Nc2ccc3c(c2)n(C)c(=O)n3C)cc1)S(C)(=O)=O,inactive: -20%,–
CN(C)S(=O)(=O)c1cccc(NC(=O)c2ccc(Sc3nncn3C)c([N+](=O)[O-])c2)c1,–,"inconclusive [inhibitor, full curve]"
Cc1csc(=O)n1CC(=O)OCC(=O)c1ccc(Br)cc1,inactive: 16.2%,–
Cc1sc2nc(C3CC3)nc(SCC(=O)N3CCc4ccccc4C3)c2c1C,–,"inconclusive [inhibitor, partial curve]"
CCOC(=O)N1CCN(C(=O)c2ccc(Cn3c(=S)[nH]c4cc5c(cc4c3=O)OCO5)cc2)CC1,–,"inconclusive [inhibitor, full curve]"

Structure (SMILES),"activity change, negative = inhibition",Potency
C=CC(=O)N1C/C=C\C(c2ccc(OC)cc2)N(Cc2ccc(F)cc2)C(=O)C1 (centres undefined),inactive: 0.466%,–
CC(C)CCOP(=O)(c1ccc(N(C)C)cc1)C(O)c1ccc(C(C)C)cc1 (centres undefined),inactive: -20.4%,–
O=C(NC1CCCC1)c1ccc(COc2ccccc2Br)o1,–,active: 12.6 µM
CC(Oc1ccc(Br)cc1)C(=O)NC1CCN(Cc2ccccc2)CC1 (centres undefined),–,"inconclusive [inhibitor, partial curve]"
CCOc1ccc(-n2c(-c3ccc(OC)cc3)c[n+]3c2CCCCC3)cc1,–,active: 7.94 µM
O=C(c1ccc(C(F)(F)F)cc1)c1c[nH]c(C(=O)NCCCn2ccnc2)c1,–,"inconclusive [inhibitor, single point]"
C[n+]1ccccc1/C=C/c1cc(Br)ccc1O,–,"inconclusive [inhibitor, single point]"
Cc1ccc2nc3c(cc(C(=O)NC4CCCCC4)c(=N)n3C3CCCCC3)c(=O)n2c1,–,"inconclusive [inhibitor, partial curve]"
On1ccccc1=S,–,active: 6.31 µM
C/C(=N\NC(=O)c1ccc(-n2cnnn2)cc1)c1ccc(Cl)cc1,–,"inconclusive [inhibitor, single point]"
O=c1oc2ccccc2c(Cl)c1CN1CCCCC1,–,"inconclusive [inhibitor, single point]"
COCCOC(=O)c1c(N)n(Cc2ccccc2)c2nc3ccccc3nc12,–,"inconclusive [inhibitor, single point]"
CC1CCc2sc(C(=O)NN=C3CCC(c4ccccc4)CC3)cc2C1 (centres undefined),inactive: 1.82%,–
COc1ccc(CCNC(=O)C2CC3Cn4c(nc5cc(Cl)c(Cl)cc54)C3N2C)cc1 (centres undefined),–,"inconclusive [inhibitor, partial curve, poor fit]"
COc1cccc(/C=N/Nc2nc(Nc3ccccc3)nc(-n3nc(C)cc3C)n2)c1O,–,active: 8.91 µM
COc1cc(NC(=O)c2sc(C)nc2C)c(OC)cc1NC(=O)c1ccccc1,–,"inconclusive [inhibitor, partial curve]"
CCN(CC)C(=O)Cn1cnc2sc(C(=O)NCCCN3CCOCC3)c(C)c2c1=O,inactive: 8.88%,–
CCOc1ccccc1NC(=O)Cn1nnc(C(=O)NCCc2ccc(OC)c(OC)c2)c1N,–,"inconclusive [inhibitor, full curve]"
CCOC(=O)C(=CNc1ccc(NC2=NCC(C)(C)S2)cc1)C(=O)OCC,–,"inconclusive [inhibitor, single point]"
Cc1ccc(N(CC(=O)N/N=C/c2ccc(OC3CSC3)cc2)S(=O)(=O)c2ccccc2)cc1,–,"inconclusive [inhibitor, single point]"
COc1cc(-c2noc(C)c2C(=O)NCc2ccc(C)o2)cc(OC)c1OC,–,"inconclusive [inhibitor, partial curve]"
CC(=O)c1cc2c(cc1NC(=O)CN1CCCCCC1)OCO2,–,"inconclusive [inhibitor, partial curve, poor fit]"
COc1cc(-c2noc(C)c2/C=C/c2cccc([N+](=O)[O-])c2)cc(OC)c1OC,–,"inconclusive [inhibitor, partial curve]"

Structure (SMILES),"activity change, negative = inhibition",Potency
Cn1c(C(=O)N2CCCC(C(=O)NCCCc3ccccc3)C2)cc2sccc21 (centres undefined),–,"inconclusive [inhibitor, full curve, poor fit]"
CCOC(=O)Cc1c(C)nc2c(-c3ccccc3)cnn2c1C,–,"inconclusive [inhibitor, single point]"
CN(C)Cc1ccccc1Sc1ccc2c(c1)CCCC2,inactive: 1.86%,–
Cn1cc(CN(Cc2ccccc2)C[C@@H]2CCC(=O)N2)c(-c2ccccc2F)n1,inactive: 24.5%,–
Cc1ccc(S(=O)(=O)N2CCCC2)cc1C(=O)NCCOc1ccccc1,inactive: -7.68%,–
O=C(C=C(C(=O)c1ccccc1)c1ccccc1)c1ccccc1,–,"inconclusive [inhibitor, single point]"
CC1(C)Cc2c(C#N)c(N3CCN(C(=O)c4ccco4)CC3)nc(-c3ccco3)c2CS1,–,active: 8.91 µM
COCC(C)N1C(=O)Cc2c1nc(N)c1c(N)nc(N3CCN(c4ccccc4F)CC3)c(C#N)c21 (centres undefined),–,"inconclusive [inhibitor, single point]"
Cc1ccc(NC(=O)COC(=O)C2(CC(=O)NC(C)(C)C)CCCC2)cc1C,–,"inconclusive [inhibitor, full curve]"
N#C/C(=C\c1ccc(Sc2nc3ccccc3[nH]2)o1)c1ccccc1,–,active: 10 µM
CC(C)Oc1ccc(CNC(=S)N/N=C/c2cccnc2)cc1,–,"inconclusive [inhibitor, single point]"
Cc1ccc(CNC(=O)c2nn(C)c(C)c2[N+](=O)[O-])cc1,inactive: 33%,–
CCOc1ccccc1CN1CCC(Oc2ccc(C(=O)NCc3ccccn3)cc2)CC1,inactive: -26.5%,–
COc1ccc2oc(C(=O)Nc3nc(-c4ccccn4)cs3)c(C)c2c1,–,"inconclusive [inhibitor, single point]"
COc1ccccc1-c1oc2ccccc2c1C#CC(C)(C)O,–,active: 10 µM
CCOC(=O)c1c(C)oc2c1c(CN1CCN(C(=O)OCC)CC1)c(O)c1ccccc12,–,"inconclusive [inhibitor, single point]"
COc1ccc(NC(=O)CN2C(=O)C(C)Oc3ccccc32)cc1OC (centres undefined),inactive: -59.6%,–
COC(=O)C1=C(c2ccccc2OCc2ccccc2)C[C@@H]2CC[C@H]1N2C(=O)NCc1ccc(N(C)C)cc1,–,"inconclusive [inhibitor, partial curve]"
Cc1nc(SCc2c(Cl)cccc2Cl)nc(OC(=O)N(C)C)c1C,–,"inconclusive [inhibitor, single point]"
CC1(C)Cc2c(C#N)c(SCCC#N)nc(N3CCOCC3)c2CS1,–,"inconclusive [inhibitor, single point]"
Cc1ccc(OCCCn2ccnc2)c(Br)c1,inactive: -20.1%,–
OCCNc1nc(N2CCCC2)nc(N2CCCC2)n1,–,"inconclusive [inhibitor, single point]"
CCO[C@H]1OC(C(=O)NCc2nc3ccccc3[nH]2)=C[C@@H](C)[C@@H]1CCCO,–,"inconclusive [inhibitor, single point]"
